PubChem BioAssay AID686978 (National Center for Advancing Translational Sciences (NCATS), 2013)
Out of some 420,000 compounds screened, about 64,000 (15%) were called active. This list was built around the results that the source calls inconclusive (neither active nor inactive); the mix of calls is not that of the screen. The call rests on the fitted dose curve; in most records, active means well fitted inhibition curve with a large enough effect; inconclusive means small, poorly fitted or top-dose-only effect; inactive means flat fitted curve, though single readings scatter. No potency is given beside an inconclusive call; the fits are too rough.
On the % scale 0 is the no-effect control and ±100 the full control effect; potency means the concentration at half of the fitted maximal effect; tags describe the fitted curve by direction and shape.

Test: qHTS for Inhibitors of human tyrosyl-DNA phosphodiesterase 1 (TDP1): qHTS in cells in absence of CPT; further: nearly all actives have a fitted effect of over 55% in size
Conditions: DT40 Tdp1-/- hTDP1 cells, no CPT, ATP luminescence, 48 h; activity change, negative = growth inhibition: at 46.2 µM (top of the series) unless noted
Outline: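 Cells were dispensed at 400 per well, compounds added by pin tool, plates incubated ≥48 hr at 37 °C, then CellTiter-Glo added for 30 min at room temperature before luminescence reading. Line: DT40 Tdp1-/- complemented with hTDP1; camptothecin omitted.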
For N#Cc1c(-c2ccccc2)nc(SCc2ccc([N+](=O)[O-])cc2)[nH]c1=O, the activity change, negative = growth inhibition was inconclusive: -32.9% [inhibitor].
For CC(C)CNC(=O)c1ccccc1NC(=O)c1ccccc1N(C)S(=O)(=O)c1ccccc1, the Potency was inconclusive [inhibitor, single point].
With CCOc1ccc(Cn2c3ccc(OC)cc3c3nc4ccccc4nc32)cc1OC the Potency was inconclusive [inhibitor, partial curve].
In the case of CC(C)C(=O)N1CCC2(CC1)Oc1ccc(Cl)cc1C(=O)C21CC(c2ccccc2)=NO1 (configuration not stated), the Potency is reported as inconclusive [inhibitor, single point].
With CCN(C(=O)c1cc2c(=O)oc3ccc(C)cc3c2s1)c1ccccc1C the Potency was inconclusive [inhibitor, single point].
With Cc1cc(O)ccc1-c1cc(C(=O)NCc2cc(C(F)(F)F)cc(C(F)(F)F)c2)[nH]n1 the Potency was inconclusive [inhibitor, partial curve, poor fit].
For CCOC(=O)[C@@H]1CCN(Cc2ccccc2)C[C@H]1c1ccccc1, the Potency was active: 23.1 µM.
With CC(NC(=O)COc1ccc(N(C)S(=O)(=O)c2ccccc2)cc1)c1ccccc1 (configuration not stated) the Potency was inconclusive [inhibitor, single point].
In the case of CCOc1ccc2nc(CN3CCN(Cc4ccsc4)C(CCO)C3)ccc2c1 (configuration not stated), the Potency is reported as active: 18.4 µM.
With Cc1ccc(OCc2nc(-c3ccc(C(=O)NCc4ccc(OC(C)C)cc4)cc3)oc2C)cc1 the Potency was active: 20.6 µM.
For COc1ccc(NC(=O)CCS(=O)(=O)c2ccc3c(c2)CCCN3C(C)=O)cc1Cl, the “activity change, negative = growth inhibition” value was inactive: -8.48%.
With Cc1ccc(NC(=O)CN2C(=O)N/C(=C/c3cc(C)n(-c4cccc(C(=O)O)c4)c3C)C2=O)cc1 the “activity change, negative = growth inhibition” value was inactive: -2.26%.
For COc1ccc(CNC(=O)C(OC(=O)c2ccco2)c2ccc(OC)cc2)cc1 (configuration not stated), the Potency was inconclusive [inhibitor, single point].
For O=C(Cn1nc(C(=O)O)c2ccccc2c1=O)Nc1ccc(Cl)c(S(=O)(=O)N2CCOCC2)c1, the “activity change, negative = growth inhibition” value was inactive: -17.7%.
With Cc1cc(C(=O)CCC(=O)N2CCN(c3ccccc3O)CC2)c(C)s1 the Potency was inconclusive [inhibitor, partial curve, poor fit].
For COc1ccc(NC2CCCN(C(=O)c3ccc(C)nc3)C2)cc1 (configuration not stated), the “activity change, negative = growth inhibition” value was inactive: 14.8%.
For Cc1cccn2c(=O)c(C(=O)NC(C)c3ccccc3)cnc12 (configuration not stated), the Potency was inconclusive [inhibitor, single point].
With Cc1nc2scc(C)n2c(=O)c1S(=O)(=O)NCCc1ccccc1 the Potency was inconclusive [inhibitor, single point].
With CC(C)c1nnc(SCC(=O)NC2CCCCC2)n1C the “activity change, negative = growth inhibition” value was inactive: 10.8%.
In the case of COc1cc2nc(N3CCCN(C)CC3)nc(N3CCN(C)CC3)c2cc1OC, the Potency is reported as active: 15.8 µM.
In the case of CCOc1ccc(N(C)S(=O)(=O)c2ccc3[nH]cc(C(=O)NCc4ccccc4)c(=O)c3c2)cc1, the “activity change, negative = growth inhibition” value is reported as inactive: 20.7%.
For O=C(Nc1cccc(O)c1)C1CC(c2c(F)cccc2Cl)=NO1 (configuration not stated), the “activity change, negative = growth inhibition” value was inactive: -24.6%.
For Cc1cccc(CCN(CC(=O)NC2CCCCC2)C(=O)c2csnn2)c1, the “activity change, negative = growth inhibition” value was inactive: -17%.
With COc1ccc(C2=CC(=O)C[C@H](c3ccc(Cl)cc3)C2)cc1 the Potency was inconclusive [inhibitor, single point].
For Nc1c(C(=O)Nc2cccc(Cl)c2Cl)sc2nc(-c3cccnc3)ccc12, the Potency was inconclusive [inhibitor, full curve, poor fit].
In the case of CC1CN(c2nc(-c3ccc(Br)cc3)nnc2-c2ccccc2)CC(C)N1 (configuration not stated), the Potency is reported as active: 10.3 µM.
For Fc1c(F)c(F)c(/C=N/NC(=S)Nc2cccnc2)c(F)c1F, the Potency was active: 18.4 µM.
With CC(C)(C)OC(=O)C[C@@H]1C/C=C\C[C@@H](CC(=O)N(CCO)Cc2ccccc2)C(=O)N2CCC[C@@H]2COC1=O the “activity change, negative = growth inhibition” value was inactive: -26%.
In the case of COc1ccc(C(=O)Nc2cccc(S(=O)(=O)NC3=NCCC3)c2)cc1OC, the “activity change, negative = growth inhibition” value is reported as inactive: 12.3%.
In the case of CC1CN(CCCCOc2ccc(Cl)c3ccccc23)CC(C)O1 (configuration not stated), the Potency is reported as active: 10.3 µM.
For Cc1noc(/C=C/c2ccco2)c1S(=O)(=O)N1CCC(C(=O)NC(C)c2ccccc2)CC1 (configuration not stated), the Potency was inconclusive [inhibitor, single point].
In the case of O=C(CSc1nc2ccccc2c(=O)n1Cc1ccco1)Nc1cccc(O)c1, the Potency is reported as inconclusive [inhibitor, single point].
In the case of CCOC(=O)c1[nH]c(C)c(C(=O)N(C)Cc2ccccc2)c1C, the Potency is reported as inconclusive [inhibitor, partial curve, poor fit].
In the case of Cc1ccc(C)c(CN2C(=O)c3ccccc3S(=O)(=O)c3ccc(C(=O)NCCC4=CCCCC4)cc32)c1, the Potency is reported as inconclusive [inhibitor, single point].
In the case of Cc1cccc2cc(CN(Cc3ccco3)C(=O)Nc3cccc(C#N)c3)c(Cl)nc12, the Potency is reported as inconclusive [inhibitor, single point].
For O=C1C=C(c2cccc(O)c2)CCC1, the “activity change, negative = growth inhibition” value was inactive: -1.23%.
In the case of CCCCCc1cc(=O)oc2c(C(CCN3CCN(c4ccccc4)CC3)c3ccc4c(c3)OCO4)c(OC)cc(OC)c12 (configuration not stated), the Potency is reported as active: 16.4 µM.
For COc1ccc(Nc2oc(-c3ccc(COc4ccccc4C)o3)nc2C#N)cc1, the Potency was inconclusive [inhibitor, single point].
In the case of O=C(c1ccco1)n1nc(-c2cccnc2)nc1NCc1ccco1, the Potency is reported as active: 23.1 µM.
In the case of COc1ccc(N2CCN(C(=O)CSc3n[nH]c(-c4ccccc4Cl)n3)CC2)cc1, the Potency is reported as inconclusive [inhibitor, single point].
With Cc1cc(C)cc(N2C(=O)N(Cc3cccc(F)c3)c3ccccc3S2(=O)=O)c1 the Potency was inconclusive [inhibitor, partial curve].
For CCOc1ccc(/C=C/[N+](=O)[O-])c2ccccc12, the Potency was active: 2.91 µM.
With O=C(NCC1CCCO1)c1ccc2c3n(nc2c1)-c1ccccc1CO3 (configuration not stated) the Potency was inconclusive [inhibitor, single point].
In the case of CSc1ccc(S(=O)(=O)NC2CC3CCC2C3)cc1 (configuration not stated), the “activity change, negative = growth inhibition” value is reported as inactive: -61.9%.
For CCN(Cc1ccccc1)C(=O)C1CCN(Cc2ccc(OC)c(OC)c2OC)CC1, the activity change, negative = growth inhibition was inconclusive: -34.3% [inhibitor].
In the case of Cc1ccc(CSc2nc3ccccc3c(=O)n2Cc2ccco2)cc1, the Potency is reported as inconclusive [inhibitor, single point].
For CCN(CC)S(=O)(=O)c1ccc(NC(=O)c2ccc(Sc3nncn3C)c([N+](=O)[O-])c2)cc1, the Potency was inconclusive [inhibitor, single point].
With CCCCN(C(=O)c1[nH]c(C)c(C(=O)OCC)c1C)c1c(N)n(CCCC)c(=O)[nH]c1=O the “activity change, negative = growth inhibition” value was inactive: -8.79%.
For CCN1CCN(c2ncc3c(n2)CC(c2ccccc2O)CC3=O)CC1 (configuration not stated), the Potency was inconclusive [inhibitor, single point].
In the case of O=C(c1ccccc1)C(I)(I)N1CCOCC1, the Potency is reported as inconclusive [inhibitor, partial curve].
For Cc1ccc(C)c(N(CC(=O)NC2CCCC2)C(=O)CCC(=O)Nc2nccs2)c1, the “activity change, negative = growth inhibition” value was inactive: -25.3%.
With COc1cc(OC)c(C(=O)/C=C/c2ccccc2)c(O)c1O the Potency was inconclusive [inhibitor, single point].
For COc1ccc(OC)c2sc(N(Cc3cccnc3)C(=O)c3ccco3)nc12, the Potency was active: 20.6 µM.
For O=C1Nc2ccccc2SC1c1ccccc1Cl (configuration not stated), the “activity change, negative = growth inhibition” value was inactive: -26.5%.
For COc1ccc(NC(=O)CN2CCN(Cc3ccccc3)CC2)cc1, the “activity change, negative = growth inhibition” value was inactive: -0.737%.
With C=CCNC(=O)c1cc(-c2ccccc2)sc1N the Potency was inconclusive [inhibitor, single point].
In the case of Cc1cc(NC(=O)CN2C(=O)c3cccnc3Sc3ccccc32)ccc1Br, the Potency is reported as active: 23.1 µM.
In the case of CN(Cc1ccccc1Cl)C(=O)C1CCC(=O)N(C2CCCCCC2)C1 (configuration not stated), the Potency is reported as inconclusive [inhibitor, single point].
For O=[N+]([O-])c1ccc(N2CCN(Cc3ccc([N+](=O)[O-])o3)CC2)cc1, the Potency was inconclusive [inhibitor, single point].
With COc1cccc(NC(=S)NCc2ccc(F)cc2)c1 the “activity change, negative = growth inhibition” value was inactive: 0.509%.
For CCc1ccccc1NC(=O)Nc1nnc(N(CC)c2ccccc2)s1, the Potency was inconclusive [inhibitor, single point].
In the case of COC(=O)CSc1nnc(CSc2nc(C)cc(C)n2)n1Cc1ccco1, the “activity change, negative = growth inhibition” value is reported as inactive: -22.8%.
With Cc1cc(C)cc(-n2c(C)cc(/C=N\NC(=O)COc3cccc4cccnc34)c2C)c1 the Potency was inconclusive [inhibitor, single point].
In the case of CCN(CC)C(=O)c1cccc(-c2csc(C(O)c3ccccc3)n2)c1 (configuration not stated), the Potency is reported as active: 23.1 µM.
With Cc1cccc(NS(=O)(=O)c2ccc(C)c(C(=O)NCc3ccncc3)c2)c1 the Potency was inconclusive [inhibitor, partial curve, poor fit].
In the case of O=C(Nc1ccccc1)c1cccc(C(=O)Nc2ccccc2)n1, the “activity change, negative = growth inhibition” value is reported as inactive: 3.77%.
With COc1ccc(NC(=O)COC(=O)C23CC4CC(CC(O)(C4)C2)C3)cc1Cl the Potency was inconclusive [inhibitor, single point].
In the case of Cc1nc(N2CCN(c3ccccc3)CC2)[nH]c(=O)c1Cc1ccccc1, the Potency is reported as inconclusive [inhibitor, single point].
For COc1ccc(-c2csc(-c3[nH]cnc3N)n2)cc1, the Potency was inconclusive [inhibitor, single point].
In the case of Cc1ccc(CNC(=O)CNS(=O)(=O)c2cccs2)cc1, the “activity change, negative = growth inhibition” value is reported as inactive: -12.5%.
For CC1CCN(c2ccc3c(c2)S(=O)(=O)c2cc(C(=O)O)ccc2C3=O)CC1, the “activity change, negative = growth inhibition” value was inactive: -0.649%.
In the case of CCOC(=O)/C(C#N)=C/c1cc2ccccc2nc1Cl, the Potency is reported as active: 3.98 µM.
